# From PubChem BioAssay AID1745853 (National Center for Advancing Translational Sciences (NCATS), 2022)
# The other results are listed elsewhere or left out. Shown are side measurements of this screen, not its main read-out; they come without a call.
# Assays:
# Assay in all cases: Primary Screen for Target Class Profiling of Small Molecule Inhibitors of Methyltransferases
# [1] = biological target: Glycine N-methyltransferase (Homo sapiens) (UniProt Q14749); details: purified enzyme, MTase-Glo SAH luminescence; measured here: GNMT inhibition; at 40 µM; stronger effect = lower value
# In short: (§1)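 Each enzyme was assayed with SAM and its substrate. SAH formation detected by MTase-Glo luminescence; single-point 40 uM screen[…].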
# [2] = biological target: Guanidinoacetate N-methyltransferase (Homo sapiens) (UniProt Q14353); details: purified enzyme, MTase-Glo SAH luminescence; measured here: GAMT inhibition; at 40 µM; stronger effect = lower value
# In short: as §1
# [3] = biological target: Histamine N-methyltransferase (Homo sapiens) (UniProt P50135); details: purified enzyme, MTase-Glo SAH luminescence; measured here: HNMT inhibition; at 40 µM; stronger effect = lower value
# In short: as §1
# [4] = biological target: Nicotinamide N-methyltransferase (Homo sapiens) (UniProt P40261); details: purified enzyme, MTase-Glo SAH luminescence; measured here: NNMT inhibition; at 40 µM; stronger effect = lower value
# In short: as §1
# [5] = biological target: Phenylethanolamine N-methyltransferase (Homo sapiens) (UniProt P11086); details: purified enzyme, MTase-Glo SAH luminescence; measured here: PNMT inhibition; at 40 µM; stronger effect = lower value
# In short: as §1
# % is scaled to controls: 0 for no effect and ±100 for the full control effect.
SMILES,"activity change, negative = inhibition [1]","activity change, negative = inhibition [2]","activity change, negative = inhibition [3]","activity change, negative = inhibition [4]","activity change, negative = inhibition [5]"
CCCCN(CCCC)C(=O)CN1C[C@H](c2ccc3c(c2)OCO3)[C@@H](C(=O)O)[C@@H]1c1ccc(OC)cc1,-14.5%,-0.16%,10.5%,-23.8%,-1.94%
COc1ccc(CC(=O)N2CCCN(c3cc(-c4ccccc4)[nH]n3)CC2)cc1,-3.46%,0.256%,-3.51%,-3.85%,-2.87%
O=C(c1ccc2c(=O)nc3c(-c4cccc(F)c4)n[nH]n3c2c1)N1CCN(c2ccccc2)CC1,-19.8%,0%,-0.121%,-5.03%,-1.8%
O=C(Nc1n[nH]c(Cc2ccccc2)n1)N1CCN(C(=O)c2ccco2)CC1,-6.37%,-3.28%,-0.885%,-5.37%,4.17%
CCN1CCN(C(=O)Cn2c(=O)oc3cc(S(=O)(=O)NCc4ccccc4)ccc32)CC1,1.6%,1.88%,2.47%,6.78%,-0.212%
CCCN(C)C(=O)c1c(-c2ccc(F)cc2)noc1[C@H](C)O,-2.13%,0.541%,1.55%,1.35%,2.69%
CCCn1c(=O)c2ccc(C(=O)NC3CCCC3)cc2n2c(=O)n(CC(=O)c3ccc(OCC)cc3)nc12,0.707%,3.02%,-4.16%,1.39%,-1.76%
COc1ccc(C(=O)Cn2nc3n(CC(C)C)c(=O)c4ccc(C(=O)NC(C)C)cc4n3c2=O)cc1,5.75%,0.855%,9.12%,-0.839%,5.03%
CC(=O)N1Cc2ccccc2CC2(CCCN2Cc2ccccn2)C1 (configuration not stated),-6.99%,-0.623%,0.533%,-5.02%,2.81%
CN(C)[C@@H]1C[C@H](CO)[C@@H](O)[C@H]1O,-3.35%,-7.42%,-0.167%,-10.7%,-3.77%
CCC(C(=O)NCCc1cccs1)n1ccc2cc(S(=O)(=O)N3CCCCC3)ccc21 (configuration not stated),9.84%,1.84%,5.66%,5.76%,5.54%
CC(C)CCNC(=O)C1(C)Cn2c(cc3ccccc32)C(=O)N1CCC(C)C (configuration not stated),-5.99%,4.22%,-0.424%,-8.9%,-1.3%
CC1(C(=O)NC2CCCCC2)Cn2nc(-c3ccco3)cc2C(=O)N1Cc1ccc2c(c1)OCO2 (configuration not stated),1.38%,0%,3.9%,2%,-0.88%
CC(C)Cn1c(=O)c2ccc(C(=O)NC3CCCC3)cc2n2c(=O)n(Cc3ccc(F)cc3)nc12,6.65%,1.91%,10.8%,2.94%,4.14%
Cc1ccccc1Cn1nc2n(C(C)C)c(=O)c3ccc(C(=O)NC4CCCC4)cc3n2c1=O,-1.78%,4.2%,4.75%,2.58%,2.58%
Cc1ccc(CCNC(=O)c2cc3n(n2)CC(C)(C(=O)NC2CCCC2)N(C)C3=O)cc1 (configuration not stated),6.46%,0%,3.87%,11.9%,3.24%
CCOC(=O)c1cc2n(n1)CC(C)(C(=O)NC1CCCCC1)N(c1cc(C)ccc1C)C2=O (configuration not stated),-1.93%,2.31%,-12%,0.919%,2.01%
Cc1ccc(NS(=O)(=O)c2ccc3[nH]c(=O)[nH]c3c2)c(C)c1,6.95%,1.86%,13.9%,-1.38%,-6.7%
O=C(CCc1ccccc1)N1CCNc2cnc(Nc3cccnc3)nc2C1,-54.8%,-51.1%,-71.8%,-61.9%,-49%

SMILES,"activity change, negative = inhibition [1]","activity change, negative = inhibition [2]","activity change, negative = inhibition [3]","activity change, negative = inhibition [4]","activity change, negative = inhibition [5]"
O=C(c1cc(-c2ccc(Cl)cc2)c2nncn2n1)N1CCOCC1,-5.62%,-6.22%,-2.67%,-10.3%,-6.42%
O=C(O)c1ccnc(-c2ccnc(NCCN3CCCCC3CO)n2)c1 (configuration not stated),0.089%,1.04%,-3.21%,-1.24%,1.4%
Cc1ccccc1N1C(=O)c2cc(C(C)(C)C)nn2CC1(C)C(=O)NC1CCCCC1 (configuration not stated),-3.52%,0%,0.829%,-0.429%,-1.91%
Cc1ccc(NS(=O)(=O)c2cc3[nH]c(=O)[nH]c3cc2C)cc1Cl,-6.37%,-1.78%,-5.96%,-20.4%,-23.2%
Cc1ccccc1NC(=O)N1CCn2c(C)ccc2C1C(C)C (configuration not stated),9.64%,0%,0.925%,0.095%,3.58%
CCC1(C(=O)NCCN2CCOCC2)CCCCC(=O)N1 (configuration not stated),-1.67%,0.327%,0.691%,-3.95%,9.01%
Cn1c(=O)cc(N2CCCC(N)C2)n(Cc2ccccc2C#N)c1=O (configuration not stated),0.88%,,10.1%,,
CCCn1ccnc1-c1c(-c2ccccc2)ncn1CCCC(=O)OC,-3.73%,-6.97%,-2.05%,-10.1%,-8.34%
CC1(C)CC[C@]23CO[C@@]4(CCC5[C@@]6(C)CC[C@H](O[C@@H]7OC[C@H](O[C@@H]8O[C@H](CO)[C@@H](O)[C@H](O)[C@H]8O[C@@H]8OC[C@@H](O)[C@H](O)[C@H]8O)[C@H](O)[C@H]7O)[C@@](C)(CO)C6CC[C@@]5(C)[C@]4(C)CC2=O)[C@@H]3C1 (some centres not stated),3.02%,15.3%,5.27%,4.55%,10.4%
Cc1ccc(Cn2c(=O)c3ccccc3n3c(CCC(=O)N4CCOCC4)nnc23)cc1,-4.45%,1.05%,12%,9.31%,3.53%
Cc1c(C(=O)N[C@@H]2COCC[C@H]2Oc2ccc(C(N)=O)cc2)cnn1C,-2.71%,1.04%,1.87%,-2.16%,12.6%
CCN1CCN(C(=O)c2cc(-c3ccccc3OC)c3nncn3n2)CC1,-5.54%,-6.05%,-3.98%,-12.8%,1.87%
O=C(Cc1ccsc1)NCC1CCCCC(=O)N1 (configuration not stated),-6.32%,0.011%,2.2%,-4.56%,-1.04%
CN(C)[C@@H]1CN(Cc2ccncc2F)CC[C@@H]1CNC(=O)C1CC1,-2.25%,0.002%,0.189%,-3.4%,0.647%
CC[C@@H](C)Nc1cc(C(=O)NC2CC3CCC(C2)N3c2ccc(C(=O)C3CC3)cn2)c(C)cc1C(N)=O (some centres not stated),-7.18%,2.57%,6.59%,-44.2%,-2.22%
CN1CCN(C(=O)c2ccc3nnc(C4CCCC4)n3c2)CC1,0.094%,2.05%,1.09%,-4.27%,-2.75%
Cc1ccc(NC(=O)Cn2nc3n(C(C)C)c(=O)c4ccc(C(=O)NC(C)C)cc4n3c2=O)cc1F,5.15%,0.839%,4.13%,4.22%,4.59%
CN1C(=O)c2cc(NC(=O)C3CCN(S(=O)(=O)N4CCCC4)CC3)ccc2N2CCN=C12,-6.58%,-5.17%,-2.09%,-10.4%,-7.01%
CCCn1c(=O)c2ccc(C(=O)NC3CCCCC3)cc2n2c(=O)n(CC(=O)N(C)c3ccccc3)nc12,3.2%,4.74%,6.58%,-3.1%,-0.218%
